The other results are listed elsewhere or left out.

The labels stand for the following.
T1: UNK ZnF1-3 (human, UniProt Q9C0B0 31-174)
T1 sequence: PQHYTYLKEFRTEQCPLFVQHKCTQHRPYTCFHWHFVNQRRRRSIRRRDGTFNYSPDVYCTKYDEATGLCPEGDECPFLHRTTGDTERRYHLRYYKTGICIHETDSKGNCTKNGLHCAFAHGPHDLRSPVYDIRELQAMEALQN

B1: chr2:52995849:52995850:-_ENSMUSG00000061136_ENSMUST00000076313|mus_mus|FALSE|FALSE (ssRNA)
RNA: GGGAGUUCUACAGUCCGACGAUCAAGAGUCAGAAAUUUAGGACUGCCCCAUCACCUGUGCCUUCAUACUACGUCUAGCAACUACAAUGUGUCUGAUGGUAUAAUCAAAACAAGACAAUAGAGUAGACUGGAUUUACAUGUUUUCAACAGAGGAUUGAGCAUCA
B2: chr7:135840685:135840686:-_ENSMUSG00000048170_ENSMUST00000057557|mus_mus|motif|central (ssRNA)
RNA: GGGAGUUCUACAGUCCGACGAUCCAACUCCCUUGAUUUAUCAAGGCCGACCCUGUUUCCUUGGUUAGCAGGGAAGAAUCGGAGGGACCACUGAUUGAUCUUCACACACAGCAGAUGAGAUUAACAGCAAGGUUCUAACUUUUCCAACAGAGGAUUGAGCAUCA
B3: chr2:29016751:29016752:+_ENSG00000213639_ENST00000296122|perfect_dup|FALSE|FALSE (ssRNA)
RNA: GGGAGUUCUACAGUCCGACGAUCUUUAGCAAAAAAUUCAUAUCCGUCUUCCACCACCUGAUGAGCUCGACAAAUCAAGUCUAAAUCAUGACGAUUCAGAAAUUUACUGACUACAUCAGCUCCAAAAGUAAAAGAAACACCACGCAACAGAGGAUUGAGCAUCA
B4: chr13:59555571:59555572:-_ENSMUSG00000021557_ENSMUST00000164215|mus_mus|FALSE|FALSE (ssRNA)
RNA: GGGAGUUCUACAGUCCGACGAUCAAAAGAGAAAGGAAUUGCUAAUGUCUGAUUGGUGGCAAGAGGCAUGAAGCUGUAGCUAUUAAAUGGCCCUGAGCCAGUCCUCCCAGGAGAGUGCCGAUGGCCAGGUCACUGUCAUCGCGUCAACAGAGGAUUGAGCAUCA
B5: chrX:34421674:34421675:+_ENSMUSG00000016308_ENSMUST00000016452|mus_hu|FALSE|FALSE (ssRNA)
RNA: GGGAGUUCUACAGUCCGACGAUCGAACAUCUUAGAGACAAAUCUAACUGUAGGUGGUUUAUUUGGAUAUUCUUCAGUGAAUUCUAUUGUAAGUUUAAAUGUUCCAUCCUCAAACGGGGUCCCUUCAGGCCCGAAAAUGACCGCCAACAGAGGAUUGAGCAUCA
B6: chr13:100191535:100191536:-_ENSMUSG00000052727_ENSMUST00000064762|mus_mus|FALSE|FALSE (ssRNA)
RNA: GGGAGUUCUACAGUCCGACGAUCAGAGGGGAUAUUGCACACAAAUAUCAUAAAAGCACUACAUAUUACUUUCACUGGAAACUAAUUUUUCUACAUUAGAUAUGACUGGAUAGGAUGGAAGUGAUGCAGGAUUAUAAGACAUAACAACAGAGGAUUGAGCAUCA
B7: chr3:58389886:58389887:+_ENSMUSG00000075700_ENSMUST00000107924|mus_mus|FALSE|FALSE (ssRNA)
RNA: GGGAGUUCUACAGUCCGACGAUCUUUGCCAACAAUUAUUAAGCCUAUUAAUACUAGUUUGAAGACUGACAGGAAAGAUGCUAUGUGUCUAUAAAUUGGUUGAGGGAGAUAAUUCUCGCCUUCAAUGCGGAUGUCUGGAUACCGCAACAGAGGAUUGAGCAUCA
B8: chr17:64801638:64801639:+_ENSG00000154229_ENST00000413366|hu_mus|hu_hu_hu_mus_False|88_108 (ssRNA)
RNA: GGGAGUUCUACAGUCCGACGAUCUAUAAAUACAUAUACAUAUGUACACAUAUGUAGUAAAACCCUAGUUAAACGUGUAAAGUAGCCAUUCAUUUUUAAAAUUACAUCUACAUUAAAAAAUUAAUAUAUCUGAUAGAGUGCCAGCAACAGAGGAUUGAGCAUCA
B9: chr18:48422213:48422214:+_ENSG00000082212_ENST00000321341|hu_mus|FALSE|FALSE (ssRNA)
RNA: GGGAGUUCUACAGUCCGACGAUCGCUUGCCCUUCUCUUUCAGGUGCACUCGGCGGCAGGUCAAGGUACAAGGAGUGGUAACAGCUCUUAGCCGGGAAAACAUCUUCUCUCCCCGGACGCCUGGCCCGUGCCAGGUGGUGCAGCCAACAGAGGAUUGAGCAUCA
B10: chr8:42881778:42881779:+_ENSG00000168172_ENST00000307602|hu_mus|FALSE|FALSE (ssRNA)
RNA: GGGAGUUCUACAGUCCGACGAUCCAACAAGUAGGGACAGUCUCGAGGUUUUUAUUUUAGGAGACAGCACCUUAAAGGGUAAGAAAAAUCUCAUUCAACAGAAAAGUGUUUAGUGAGUAGAGCACUUGCCCUGGAGUGCACGAGCAACAGAGGAUUGAGCAUCA
B11: chr11:100452292:100452293:-_ENSMUSG00000014195_ENSMUST00000014339|perfect_dup|motif|central (ssRNA)
RNA: GGGAGUUCUACAGUCCGACGAUCAUUUGUUUUUAUGUUGUUGGGAUCUAUCCCCAAGGCUUCUGUGUACAGUUCAUAUGCGGGCUUGUAAUUUCCUUCCUUAAAGGCUUUAUUCCCAUCUUCCUUCUUGGCUUUAAGGGCUUUCAACAGAGGAUUGAGCAUCA
B12: chr14:102368134:102368135:+_ENSG00000078304_ENST00000445439|hu_hu|hu_hu_hu_mus_True|48_108 (ssRNA)
RNA: GGGAGUUCUACAGUCCGACGAUCAAGGGGUUCCAUGAUCUUCACAAACUCUGAUGGUUCAAUUACAUCUAAAAUUUCUUCUAAUUCGUUUAAGAACAUUACUUCUUUUGGACUGUGAGUCUUUGGCCAGUAUUUGAGAAGUGCCAACAGAGGAUUGAGCAUCA
B13: chr14:66974463:66974464:+_ENSMUSG00000022044_ENSMUST00000074523|mus_hu|mus_mus_mus_hu_False|18_18 (ssRNA)
RNA: GGGAGUUCUACAGUCCGACGAUCUUGUAGGACGACUUAUUCAGGGGAUCGGCCAGGAAGCAGGAGCAGAACAAGGACACCAGCGGGAGCUCCUUCAUCUUCUCUUUGUAGGCAGCAAGAGUCAUGUUUCUGGGAUCUGGUGGCCAACAGAGGAUUGAGCAUCA
B14: chr3:10015032:10015033:+_ENSMUSG00000027533_ENSMUST00000029046|mus_mus|motif|central (ssRNA)
RNA: GGGAGUUCUACAGUCCGACGAUCGUUGUUGCCAUCACACGUAAUGAUACAGUCUGGCUUGGCCAUGGCAGCCAUCUUCCGGAGAGCCAGUCCUACUCCUAGCUCUUUCAUGUACUCCUCAAAGCCGUGGCUUUCCAUCAGGCGCAACAGAGGAUUGAGCAUCA

This assay addresses T1, UNK ZnF1-3. The assay can be described thus: nsRBNS (natural sequence RNA bind-n-seq); RBNS binding buffer (assumed for nsRBNS): 25 mM Tris pH 7.5, 150 mM KCl, 3 mM MgCl2, 0.01% Triton X-100, 500 ug/ml BSA, 20 U/ml SUPERase-In, 4 C; UNK is unkempt and MSI1 is Musashi-1; names of the RNAs are library labels; protein concentration not given here; high values mean tight binding.
The molecule B1 returned a binding signal of 1.59 enrichment R.

B2 gave a binding signal of 0.914 enrichment R.

Consider B3, for which the binding signal stood at 1.25 enrichment R.

Consider B4, for which the binding signal amounted to 1.13 enrichment R.

In the case of B5, the binding signal was determined as 0.853 enrichment R.

For the molecule B6, the binding signal was found to be 1.08 enrichment R.

Take B7: the binding signal worked out at 1.47 enrichment R.

For B8, the binding signal stood at 1.67 enrichment R.

In turn, B9 displayed a binding signal of 0.78 enrichment R.

As to B10, the binding signal was 1.27 enrichment R.

Consider B11, for which the binding signal amounted to 0.27 enrichment R.

Molecule B12 returned a binding signal of 0.823 enrichment R.

As to B13, the binding signal turned out to be 2.29 enrichment R.

B14 displayed a binding signal of 0.573 enrichment R.

Values taken from article PMC12136788.
